In PubChem BioAssay (NCI):
“And” between values parts separate entries of the source, which are not always exact repeats. Equal entries are not always repeated.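 Where inhibition never reached the appropriate level, the endpoint shown equals the highest concentration tested. Otherwise, values were interpolated linearly from a five-concentration, 48-hour dose response in 96-well plates. Here, GI50 denotes the concentration required for 50% inhibition of growth.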

System: NCI-H322M lung
Assay: inhibition of tumour cell growth, NCI panel, 48 h

Question: With `CC[C@]1(O)C[C@H]2CN(CCc3c([nH]c4ccccc34)[C@@](C(=O)OC)(c3cc4c(cc3OC)N(C=O)[C@H]3[C@@](O)(C(=O)OC)[C@H](OC(C)=O)[C@]5(CC)C=CCN6CC[C@]43[C@@H]65)C2)C1` as the molecule, how does the GI50 read?
Answer: 0.0976 µM and 0.103 µM
